{"source": "paper PMC4336329", "about": "(PLoS ONE, 2015)", "note": "The whole screen tested about 310,000 compounds, of which about 14,000 (4.5%) showed an effect of 50% or more. Effects have a minus sign here. Some of the results follow.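 Note: peak tail current of the secondary pulse compared with the same well before compound.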", "data": [{"target": "human ether-à-go-go-related gene (hERG) potassium channel (human, UniProt Q12809)", "sequence (Q12809 whole entry, looked up)": "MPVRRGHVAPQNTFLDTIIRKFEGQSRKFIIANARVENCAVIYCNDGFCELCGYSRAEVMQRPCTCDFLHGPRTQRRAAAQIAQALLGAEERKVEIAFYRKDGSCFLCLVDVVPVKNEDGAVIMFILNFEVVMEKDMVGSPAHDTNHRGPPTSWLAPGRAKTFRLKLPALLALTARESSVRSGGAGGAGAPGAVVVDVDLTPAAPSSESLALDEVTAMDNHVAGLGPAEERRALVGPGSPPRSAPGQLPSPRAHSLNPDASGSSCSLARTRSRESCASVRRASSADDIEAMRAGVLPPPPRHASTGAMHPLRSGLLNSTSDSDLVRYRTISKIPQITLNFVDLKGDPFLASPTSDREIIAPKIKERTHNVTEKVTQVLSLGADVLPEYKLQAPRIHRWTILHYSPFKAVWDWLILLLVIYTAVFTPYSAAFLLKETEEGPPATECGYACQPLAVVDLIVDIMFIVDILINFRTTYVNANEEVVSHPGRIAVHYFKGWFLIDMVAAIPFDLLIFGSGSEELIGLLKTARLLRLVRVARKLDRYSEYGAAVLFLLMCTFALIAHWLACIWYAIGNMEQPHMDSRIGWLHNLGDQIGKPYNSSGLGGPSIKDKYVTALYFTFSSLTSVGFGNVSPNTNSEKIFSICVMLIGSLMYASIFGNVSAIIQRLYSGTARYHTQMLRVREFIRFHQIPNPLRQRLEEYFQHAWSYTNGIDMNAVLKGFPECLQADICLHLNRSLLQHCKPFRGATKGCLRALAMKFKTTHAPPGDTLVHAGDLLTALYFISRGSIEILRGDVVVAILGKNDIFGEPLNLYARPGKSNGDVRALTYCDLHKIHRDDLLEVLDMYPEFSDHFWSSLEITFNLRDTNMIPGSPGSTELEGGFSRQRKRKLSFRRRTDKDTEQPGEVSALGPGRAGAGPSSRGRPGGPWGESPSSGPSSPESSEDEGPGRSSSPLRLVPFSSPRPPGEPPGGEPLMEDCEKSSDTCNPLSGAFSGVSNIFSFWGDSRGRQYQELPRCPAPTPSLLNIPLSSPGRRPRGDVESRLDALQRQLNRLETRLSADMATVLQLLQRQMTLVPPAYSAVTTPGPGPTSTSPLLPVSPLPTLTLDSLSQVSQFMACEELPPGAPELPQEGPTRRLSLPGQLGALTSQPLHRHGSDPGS", "assay": "primary screen, population patch clamp on CHO cells stably expressing hERG", "units": {"hERG current change (%, negative = inhibition) at 10uM": "%"}, "values": [{"smiles": "NC(=O)c1nn(-c2ccccc2)nc1NC(=O)CN1CCCC1", "hERG current change (%, negative = inhibition) at 10uM": -14.7}, {"smiles": "COc1ccc(C(C)C)cc1S(=O)(=O)n1cnc(C)c1", "hERG current change (%, negative = inhibition) at 10uM": -12.6}, {"smiles": "CCC(C)(C)n1nnnc1C(c1cc(OC)ccc1OC)N1CCC(C(N)=O)CC1", "note": "(stereo not shown)", "hERG current change (%, negative = inhibition) at 10uM": -1.9}, {"smiles": "CCN(CC)S(=O)(=O)c1cc(C(=O)Oc2ccccc2OC)ccc1OC", "hERG current change (%, negative = inhibition) at 10uM": -25.5}, {"smiles": "COc1ccc(CCNC(=O)Cc2ccc(OCc3ccccc3)c(OC)c2[N+](=O)[O-])cc1OCc1ccccc1", "hERG current change (%, negative = inhibition) at 10uM": 7.7}, {"smiles": "Cc1ccc(S(=O)(=O)N(C)c2ccc(OCC(=O)Nc3nc4c(ccc5ccccc54)s3)cc2)cc1", "hERG current change (%, negative = inhibition) at 10uM": 5.08}, {"smiles": "O=C1COc2ccc(S(=O)(=O)NCc3ccccc3)cc2N1", "hERG current change (%, negative = inhibition) at 10uM": 19.4}, {"smiles": "CCCS(=O)(=O)c1cscc1NC(=O)c1c(-c2c(F)cccc2Cl)noc1C", "hERG current change (%, negative = inhibition) at 10uM": -10}, {"smiles": "Cc1ncc(CO)c2cc(C(N)=O)c(=Nc3ccccc3)oc12", "hERG current change (%, negative = inhibition) at 10uM": -27.7}, {"smiles": "CCOC(=O)N1CCC(N2Cc3cccc(C(=O)NCc4ccccn4)c3C2=O)CC1", "hERG current change (%, negative = inhibition) at 10uM": -34.5}, {"smiles": "O=[N+]([O-])c1ccccc1S(=O)(=O)Nc1ccc(-c2ccc(N3CCOCC3)nn2)cc1", "hERG current change (%, negative = inhibition) at 10uM": -11.8}, {"smiles": "Cn1c(N)c(C(=O)COC(=O)COc2ccc3ccccc3c2)c(=O)n(C)c1=O", "hERG current change (%, negative = inhibition) at 10uM": -8.66}, {"smiles": "Cc1ccccc1OCC(=O)Nc1nnc(COc2ccccc2)s1", "hERG current change (%, negative = inhibition) at 10uM": 14.1}, {"smiles": "COc1ccc(/C=C/C(=O)NCc2ccccn2)cc1", "hERG current change (%, negative = inhibition) at 10uM": -3.07}, {"smiles": "COc1ccc(S(=O)(=O)c2ccccc2)cc1NC(=O)c1c(F)cccc1F", "hERG current change (%, negative = inhibition) at 10uM": -5.26}, {"smiles": "O=C(CSc1nnc(-c2ccncc2)n1-c1ccc(Cl)cc1)NCc1cccs1", "hERG current change (%, negative = inhibition) at 10uM": -15.3}, {"smiles": "Cn1c(=O)c2c(nc(CN3CCc4ccccc4C3)n2Cc2ccc(F)cc2)n(C)c1=O", "hERG current change (%, negative = inhibition) at 10uM": -26.5}, {"smiles": "OCCOCCN1CCN(C(=S)Nc2ccccc2)CC1", "hERG current change (%, negative = inhibition) at 10uM": 21.8}, {"smiles": "CCn1c(-c2cc(OC)c(OC)c(OC)c2)n[nH]c1=S", "hERG current change (%, negative = inhibition) at 10uM": 12.1}, {"smiles": "CC(C)C(=O)Nc1cccc(NC(=S)NC(=O)c2ccccc2Cl)c1", "hERG current change (%, negative = inhibition) at 10uM": -9.02}, {"smiles": "O=C(CSc1ncn(-c2ccccc2)n1)Nc1nncs1", "hERG current change (%, negative = inhibition) at 10uM": 10.1}, {"smiles": "CCCc1nc2ccccc2c(=O)n1CC(=O)c1ccc(OC)cc1", "hERG current change (%, negative = inhibition) at 10uM": 17}, {"smiles": "Cc1ccc(/C([O-])=C(/C(=S)NCc2ccco2)[n+]2ccccc2)cc1[N+](=O)[O-]", "hERG current change (%, negative = inhibition) at 10uM": -18}, {"smiles": "Clc1ccc(OCc2nn3c(-c4ccccc4)nnc3s2)c(Cl)c1", "hERG current change (%, negative = inhibition) at 10uM": -10.6}, {"smiles": "O=C(CSc1nc2cc(S(=O)(=O)N3CCOCC3)ccc2o1)Nc1c(F)cccc1F", "hERG current change (%, negative = inhibition) at 10uM": 3.71}, {"smiles": "CCC(=O)c1ccc(OCc2ccc(C(=O)OC)cc2)c(OC)c1", "hERG current change (%, negative = inhibition) at 10uM": -11.2}, {"smiles": "O=C(CN(Cc1ccccc1)S(=O)(=O)c1ccc(F)cc1)NCc1ccncc1", "hERG current change (%, negative = inhibition) at 10uM": -52.3}, {"smiles": "O=C(CCc1ccccc1)N1CCN(c2ccc([N+](=O)[O-])cc2)CC1", "hERG current change (%, negative = inhibition) at 10uM": -73.1}, {"smiles": "CC1(c2ccccc2Br)NC(=O)N(CC(=O)Nc2ccc(S(N)(=O)=O)cc2)C1=O", "note": "(stereo not shown)", "hERG current change (%, negative = inhibition) at 10uM": 23.7}, {"smiles": "Cc1ccc(NC(=O)c2ccc(Cn3cc(Br)cn3)o2)cc1", "hERG current change (%, negative = inhibition) at 10uM": -21}, {"smiles": "COc1ccccc1OCCNC(=O)C1CC(=O)N(Cc2ccccc2)C1", "note": "(stereo not shown)", "hERG current change (%, negative = inhibition) at 10uM": -10.2}, {"smiles": "COc1cc(OC)c(OC)cc1CNCc1ccco1", "hERG current change (%, negative = inhibition) at 10uM": 8.08}, {"smiles": "CC(C)c1ccccc1OCC(=O)N1CCCCCCC1", "hERG current change (%, negative = inhibition) at 10uM": 13}, {"smiles": "COc1ccccc1NC(=O)COc1ccc(C(=O)OCC(=O)N2CCCC2=O)cc1OC", "hERG current change (%, negative = inhibition) at 10uM": 3.01}, {"smiles": "O=C(Nc1cccc(O)c1)C1CC(c2cccc(Br)c2)=NO1", "note": "(stereo not shown)", "hERG current change (%, negative = inhibition) at 10uM": 4.7}, {"smiles": "Cc1cccc(C(=O)N2CCCC(Nc3ccc(F)c(F)c3)C2)n1", "note": "(stereo not shown)", "hERG current change (%, negative = inhibition) at 10uM": -1.54}, {"smiles": "O=C(O)C1=C[C@H](c2ccc(F)cc2)C[C@H](OCCCCO)O1", "hERG current change (%, negative = inhibition) at 10uM": 10.7}, {"smiles": "O=C(CC(=O)NC1CCCCC1)N/N=C/c1ccccc1[N+](=O)[O-]", "hERG current change (%, negative = inhibition) at 10uM": 13.3}, {"smiles": "O=C(O)C(=O)O.O=C(c1ccccc1)N1CCN(CC2CC=CCC2)CC1", "note": "(stereo not shown)", "hERG current change (%, negative = inhibition) at 10uM": -23.7}, {"smiles": "CC(=O)c1ccc2c(c1)Cc1cc(C(C)=O)ccc1-2", "hERG current change (%, negative = inhibition) at 10uM": 16.3}, {"smiles": "O=C(CN1CCC(NC(=O)c2ccco2)CC1)Nc1cccc2ccccc12", "hERG current change (%, negative = inhibition) at 10uM": -12.4}, {"smiles": "COC(=O)c1ccc(OCC(O)CN(CCO)CCO)cc1", "note": "(stereo not shown)", "hERG current change (%, negative = inhibition) at 10uM": -3.29}, {"smiles": "CCCCOC(=O)c1ccc(NC(=O)CSCc2n[nH]c(=O)[nH]2)cc1", "hERG current change (%, negative = inhibition) at 10uM": 1.91}]}]}
